PubChem BioAssay AID1362 (SRMLSC, 2008)
Some of the results follow. These are further read-outs of the screen, such as a control signal, another cell line or another target. No call is given for them. The list favours compounds with an active or inconclusive main result.

Assay: growth inhibition of WT strain, primary screen, mitochondrial fusion inhibitor project, WT and mutant strains, chemical genetic (AID 1362); note: tested in S. cerevisiae
Conditions: mitochondrial fusion phenotypic screen, at 10 µM

Compound | inhibition [%]
COc1nc(N2CCCCCC2)nc(N2CCCCCC2)n1 | 27.6
COc1cc(SC)ccc1C(=O)NCCOc1ccc(Cl)cc1 | 47.6
Cc1ccc(NC(=S)NCc2ccc3[nH]c4c(c3c2)CCCC4)cc1 | 44.2
O=C(/C=C/c1ccc(Br)o1)NC(c1ccccc1)c1ccccc1 | 36.7
C=CCC(C(=O)OC)(C(=O)OC)c1ccc([N+](=O)[O-])cn1 | -15.9
Cc1cccc(OCc2n[nH]c(=S)n2Cc2ccccc2)c1 | 51.1
COc1ccccc1-n1c(-c2ccccc2)c[n+]2c1CCc1ccccc1-2 | 47.6
CC1Oc2ccccc2C=C1/C=N/NC(=O)c1ccccc1O (stereo unspecified) | 41.4
O=C(/C=C/c1cccc(Cl)c1)N1CCC(Cc2ccccc2)CC1 | 28.9
CCOC(=O)c1c(C)[nH]c(C)c1C(=O)COC(=O)/C=C/c1cccc(C(F)(F)F)c1 | -8.44
CCCCc1ccc(NC(=S)NCc2cccc(OC)c2)cc1 | 57.8
CC(=Nc1ccc(C)cc1C)c1sc2ccccc2c1O | 47.3
COc1cccc(CNC(=O)CNC(=S)N(Cc2ccccc2)Cc2ccccc2F)c1 | 4.06
Cc1ccc(C(c2nnnn2C2CCCCC2)N(C)C2CCCCC2)cc1 (stereo unspecified) | 67.3
C/C(=N\NC(=S)NCc1ccccc1)c1ccc(Br)cc1 | 49.4
CC(C)Cn1c(N)c(C(=O)COC(=O)c2cc(C(F)(F)F)nc3c(C(F)(F)F)cccc23)c(=O)n(C)c1=O | 11.9
CCOc1ccc(C(C)NC(=S)NC2CCCCC2)cc1 (stereo unspecified) | 65.1
c1cn2cc(-c3ccc4c(c3)OCO4)nc2s1 | 67.1
CCCCCC(=O)Nc1cc(N(C)C)nc2ccccc12 | -0.46
O=c1c2ccccc2nc(SCc2ccccc2Cl)n1Cc1ccccc1 | 22.3
C/C(=N\NC(=S)NCc1ccccc1)c1ccc2ccccc2c1OC(F)F | 15
CC(C)C(c1nnnn1C1CCCC1)N1c2ccccc2CC1C (stereo unspecified) | 22.9
Cc1ccc(Nc2nc(N)nc(CSc3nc4ccccc4s3)n2)cc1 | 12.5
Cc1ccc2sc(N(CCCN(C)C)C(=O)c3ccc(Br)s3)nc2c1C | 87

Compound | inhibition [%]
Cc1cccc(NC(=S)NCCSc2ccc(Cl)cc2)c1 | 62.4
Cc1c(-c2cccs2)[n+](=O)c2c(n1[O-])CCCCC2 | 37.6
Cc1ccc(-c2cc(-c3ccccc3)c(C#N)c(N)n2)o1 | 0.98
O=C(Nc1ccccn1)c1ccco1 | -6.61
O=C(C1=C[C@@H](C2CCCCC2)C[C@@H](OCc2ccc(CO)cc2)O1)N1CCN(Cc2ccc3c(c2)OCO3)CC1 | 27.1
CCCC(=O)C1=C(O)C(c2cccc(Oc3ccccc3)c2)CCC1=O (stereo unspecified) | 57.9
Cc1cc[n+](CC(=O)c2ccc(NC(=O)c3ccccc3)cc2)c2ccccc12 | 20.1
OC1CCCN(c2c3c(nc4cc(-c5cccc(Cl)c5)nn24)CCC3)C1 (stereo unspecified) | 65.1
Cc1ccc(S(=O)(=O)Nc2ccc(C(OC(=O)c3ccccc3[N+](=O)[O-])(C(F)(F)F)C(F)(F)F)cc2)cc1 | 15.9
COc1ccc(-c2n[nH]c(C(F)(F)F)c2-c2cc3ccccc3o2)c(O)c1 | 86.6
Cc1ccc(-c2nnc(SCc3ccccc3F)o2)cc1 | 39.3
COc1ccc(NC(=O)c2csc(Cc3ccc(Cl)cc3)n2)cc1 | 4
COc1ccc(-c2[nH]c(-c3cc(OC)c4c(c3)OCO4)nc2-c2ccccc2)cc1 | 10.3
Cc1cc(/C=N/n2cnnc2)c(C)n1-c1ccc(OCc2ccc(Cl)cc2)cc1 | 50.5
O=C(CCSc1ccc(Cl)cc1)NC12CC3CC(CC(C3)C1)C2 | 28
CC(=O)COc1cc(C)cc2oc(=O)c(C)c(C)c12 | 37.7
OC(COc1ccccc1)Cn1c2ccccc2c2ccccc21 (stereo unspecified) | 51.3
CCCOc1ccc(C2C(C(=O)c3ccco3)=C(O)C(=O)N2CCN2CCOCC2)cc1OC (stereo unspecified) | -3.73
Cc1ccc(SCCNC(=S)Nc2cc(C)ccc2C)cc1 | 64.2
O=C1/C(=C/c2ccncc2)CCC/C1=C\c1ccncc1 | 42.1
COc1ccc(S(=O)(=O)N2CCC[C@H]2C(=O)NC2=NCCS2)cc1 | 1.49
COc1ccc(NC(=S)NNC(=O)COc2ccc(Cl)cc2Cl)cc1 | -3.89
N#Cc1c(-c2cccnc2)c2c([nH]c1=S)CCCC2 | -8
Cc1ccc(Cl)cc1N1CCN(CC(=O)NC2CCCc3ccccc32)CC1 (stereo unspecified) | 7.4

Compound | inhibition [%]
CC1CCC(C(C)C)C(OC(=O)Cn2c(-c3ccc(Br)cc3)[n+](C)c3ccccc32)C1 (stereo unspecified) | 30.6
COc1ccc(Cn2nc(-c3ccccc3)c(N3CCCCC3)cc2=O)cc1 | 3.25
Cc1ccsc1/C=N/Nc1nc(=O)[nH]nc1C | 60.5
CC1CCCc2sc3nc(NCc4ccco4)n4ncnc4c3c21 (stereo unspecified) | 75.8
COc1ccc2c(c1)/C(=N/OC(=O)c1cccs1)CCC2 | 23.5
CNC(=S)N(CCc1c(C)[nH]c2ccc(C)cc12)Cc1cccs1 | 36.2
Cc1ccc2cc(CN(Cc3cccs3)C(=O)c3ccco3)c3nnnn3c2c1C | 43.6
Cc1nc(N)nc(N)c1/C=C/C(C)(C)c1ccc(Cl)cc1 | 39.4
COc1cccc(/C=N/n2c(C)nc3ccccc32)c1OC | 48.3
CCC(=O)OCCNc1cc(Sc2nc3ccccc3s2)c2nonc2c1[N+](=O)[O-] | 91.8
C/C(N)=C(/C#N)C(=O)CSc1nnnn1-c1ccccc1 | -4.22
N/C(=N\OC(=O)N1c2ccccc2Sc2ccccc21)c1ccccc1 | 33.3
CC(=O)C(Sc1ncnc2sc3c(c12)CCCC3)C(C)=O | 72.5
Cc1cccc(C)c1NC(=S)NC1CCCCC1 | 30
CCCCCC(C)NC(=O)c1ccoc1C (stereo unspecified) | 74.9
COCCNC(=S)N(CCc1c(C)[nH]c2ccc(Cl)cc12)Cc1cccs1 | 19.8
CCOC(=O)CC(=O)CSc1nc(C)nc2c1oc1ccccc12 | 1.34
OC(CNCCC(c1ccccc1)c1ccccc1)COc1ccccc1 (stereo unspecified) | 56.5
CC(=O)c1ccc(NC(=O)Nc2cccc(Cl)c2)cc1 | 43.7
CC(C)(C)C1CCc2sc(-c3nnc(CCl)o3)cc2C1 (stereo unspecified) | 27
Cc1ccc(N2C(=N)/C(=C3/Nc4ccccc4S3)C(c3ccccc3)C2=O)cc1 (stereo unspecified) | 67.5
Cc1ccc(C)c(SCC(=O)Nc2nnc(-c3ccccc3)o2)c1 | 64.4
C/C(=C\C(=S)Nc1ccccc1)Nc1ccc2ccccc2c1 | 16.5
